Experimental data: patent US20230357793A1 (SORRENTO THERAPEUTICS, published 2023)

Biological target: recombinant human TGFβ1 (rhTGFβ; Sino Biological) (human) (UniProt P01137)
Experiment: cell-based or functional assay

UniProt P01137, sequence (P01137 279-390 limits assumed): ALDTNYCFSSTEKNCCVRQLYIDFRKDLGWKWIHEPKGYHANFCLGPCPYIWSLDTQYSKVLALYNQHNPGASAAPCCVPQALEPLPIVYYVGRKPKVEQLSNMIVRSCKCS

inhibition of CD103 expression (VFCM of SepGI-143): > 70%
B1: BB9 anti-PD-1 ScFv-Fc4-TGFβRIIecto fusion protein (Fc fusion)
chain: QVQLVQSGAEVKKPGASVKVSCKASGFRLTTNGISWVRQAPGQGLEWMGWISAGGGPTNYAQKLQGRVTMTTDTSTSTAYMELRSLRSDDTAVYYCAKGLYGTKDAWGQGTLVTVSSGGGGSGGGGSGGGGSQSVLTQPPSVSEVPGQRVTISCSGGGSNIGSNAVNWYQHFPGKAPKLLIYYNDLLPSGVSDRFSASKSGTSASLAISGLRSEDEADYYCAAWDDNLSAYVFATGTKVTVL[human IgG4 Fc with S228P (EU numbers) omitted here]GGGGSGGGGSGGGGSIPPHVQKSVNNDMIVTDNNGAVKFPQLCKFCDVRFSTCDNQKSCMSNCSITSICEKPQEVCVAVWRKNDENITLETVCHDPKLPYHDFILEDAASPKCIMKEKKKPGETFFMCSCSSDECNDNIIFSEEYNTSNPD

inhibition of CD103 expression (VFCM of SepGI-144): > 70%
B2: H6B1LEM anti-PD-L1 ScFv-Fc4-TGFβRIIecto fusion protein (Fc fusion)
chain: QMQLVQSGAEVKKPGSSVKVSCKASGGTFSSYAYSWVRQAPGQGLEWMGGIIPSFGTANYAQKFQGRVTITADESTSTAYMELSSLRSEDTAVYYCARGPIVATITPLDYWGQGTLVTVSSGGGGSGGGGSGGGGSSYVLTQPPSVSVAPGKTATIACGGENIGRKTVHWYQQKPGQAPVLVIYYDSDRPSGIPERFSGSNSGNTATLTISRVEAGDEADYYCLVWDSSSDHRIFGGGTKLTVL[human IgG4 Fc with S228P (EU numbers) omitted here]GGGGSGGGGSGGGGSIPPHVQKSVNNDMIVTDNNGAVKFPQLCKFCDVRFSTCDNQKSCMSNCSITSICEKPQEVCVAVWRKNDENITLETVCHDPKLPYHDFILEDAASPKCIMKEKKKPGETFFMCSCSSDECNDNIIFSEEYNTSNPD

Each block holds one binder with its values, some of them ahead of it.
